Measured values as given in PubChem BioAssay AID485344 (National Center for Advancing Translational Sciences (NCATS), 2010).
Out of some 340,000 compounds screened, about 6,900 (2%) were called active. Cut-off read from the data, not from the text of the source: active = inhibition above about 30%; inactive = below that, where a call was filed. The list shows a part of the results, in another mix than the full data. Entries without a call were filed so in the source.
Note: 0% is about no effect.

What follows are compounds tested against D(2) dopamine receptor (Homo sapiens) (UniProt P14416) (assay: HTS Assay for Allosteric Antagonists of the Human D2 Dopamine Receptor: Primary Screen for Antagonists). Details: HEK293 TREx D2 cells, calcium flux, dopamine EC80; at 10 µM; stronger effect = higher value.
UniProt P14416, sequence (P14416 whole entry, looked up): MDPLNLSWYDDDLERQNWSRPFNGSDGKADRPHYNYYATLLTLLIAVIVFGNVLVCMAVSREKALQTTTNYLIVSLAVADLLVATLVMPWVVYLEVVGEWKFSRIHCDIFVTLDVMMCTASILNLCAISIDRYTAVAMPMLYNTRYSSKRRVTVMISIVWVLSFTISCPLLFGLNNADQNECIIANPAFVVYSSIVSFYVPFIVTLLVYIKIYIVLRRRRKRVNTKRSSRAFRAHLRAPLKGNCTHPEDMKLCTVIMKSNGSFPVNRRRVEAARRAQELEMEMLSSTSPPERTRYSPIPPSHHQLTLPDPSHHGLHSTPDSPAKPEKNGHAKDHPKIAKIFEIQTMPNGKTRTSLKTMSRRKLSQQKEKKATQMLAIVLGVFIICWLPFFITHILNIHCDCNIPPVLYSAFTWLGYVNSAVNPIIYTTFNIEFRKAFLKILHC
Method in brief: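 HEK293 T-REx D2 cells, tet-induced, calcium dye no-wash. Cpd pintool add, 180 s kinetic, then EC80 DA, 180 s kinetic. Ca flux read.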
In the case of `CCOC(=O)CSc1nc2cc3c(cc2c(=O)n1CCCCCC(=O)NCc1ccc(OC)cc1)OCO3`, the inhibition is reported as -27.7%. `CN(C)c1ccc(CNC(=O)c2ccc3nc(CCc4ccccc4)oc3c2)cc1` gave an inhibition of 7.88%. Work on `Cc1ccc(N2C(=O)CSC23C(=O)N(CC(=O)Nc2ccccc2F)c2ccccc23)cc1C` (stereo unspecified) yielded an inhibition of -19.1%. `Cc1ccc(CNC(=O)c2ccc(CS(=O)(=O)c3ccccc3C)o2)cc1` gave an inhibition of -1.16%. With `C=CCc1ccccc1OCCNCc1ccccc1` the inhibition was active: 69%. In the case of `CCOc1ccc(NC(=O)c2oc3ccccc3c2NC(=O)c2cc3ccccc3o2)cc1`, the inhibition is reported as 16.2%. `COc1ccccc1NC(=O)Cn1c(=O)n(-c2ccc(C)cc2)c(=O)c2c1cnn2C` was tested, and the inhibition was -3.07%. In the case of `CCC(C)c1ccc(OCC(=O)Nc2ccc(-c3nc4ncccc4o3)cc2)cc1` (stereo unspecified), the inhibition is reported as 1.51%. With `CC(OC(=O)COc1ccc(C#N)cc1)C(=O)c1ccccc1` (stereo unspecified) the inhibition was active: 31.9%. In the case of `CCOC(=O)c1ccc(NC(=O)c2c(NCc3cccc(OC)c3OC)sc3c2CCC3)cc1`, the inhibition is reported as -1.96%. Compound `CC(C)Oc1ccc(C(=O)N2CCCCC2CCN2CCCCC2)cc1` (stereo unspecified) has an inhibition of -12.7%. For `CCCOc1ccc(CNC(=O)c2cc3ccccn3n2)cc1`, the inhibition was 9.51%. Compound `CCOC(=O)c1sc(N2C(=O)c3oc4ccc(F)cc4c(=O)c3C2c2ccc(O)cc2)nc1C` (stereo unspecified) has an inhibition of 13.1%. For `Cc1cc(CNC(=O)c2cccc([N+](=O)[O-])c2)c2ccccc2n1`, the inhibition was active: 49.1%. In the case of `O=C(NCC1c2ccccc2CCN1C(=O)CN1C(=O)c2ccccc2C1=O)C1CCCCC1` (stereo unspecified), the inhibition is reported as active: 30.4%. With `Cc1ccc(N2C(=O)N(Cc3cccc(Cl)c3)c3ccccc3S2(=O)=O)cc1` the inhibition was -6.66%. `CCC1CN(C(=O)Nc2cc(Cl)ccc2C(=O)OC)c2ccccc2S1` (stereo unspecified) showed an inhibition of 14.7%. In the case of `COc1ccc(OC)c(NC(=O)COCc2cc(-c3ccc(F)cc3)on2)c1`, the inhibition is reported as 14.3%. For `Cc1ccc(C)c(Cn2c(=O)n(CCCC(=O)NCc3ccc4c(c3)OCO4)c(=O)c3sccc32)c1`, the inhibition was 12.2%. `CCCSc1ncc(Cl)c(C(=O)N2CCN(c3ccc(OC)cc3)CC2)n1` showed an inhibition of -10.7%. With `COc1ccc(-c2noc(CCC(=O)NCCN3CCN(c4ccccc4F)CC3)n2)cc1` the inhibition was active: 64.7%. `CN(C(=O)c1nn(C)c2c1CS(=O)(=O)c1ccccc1-2)c1cccc(Cl)c1` gave an inhibition of 4.48%. Compound `CCc1ccccc1NC(=O)CSc1nc2c(c(=O)[nH]1)CN(Cc1ccccc1OC)CC2` has an inhibition of 3.59%. With `COc1ccccc1-n1c(=O)n(C)c2c(C(N)=O)nc(-c3cc(OC)c(OC)c(OC)c3)nc21` the inhibition was 10.4%. With `COc1ccc(C)cc1NC(=O)CCN1CCN(C/C=C/c2ccccc2)CC1` the inhibition was active: 68%. With `COc1cc2c(cc1NC(=O)C(C)Oc1ccccc1)oc1ccccc12` (stereo unspecified) the inhibition was 3.7%.
